Laboratory results: the supplement of paper PMC7826260
The list shows a part of the results. Each Rep nickase domain was tested in vitro on the same pool of single strands (3 µM enzyme, 1 h, 37 °C); shown is the middle of each 90-letter strand. Uncut reads are compared with the no-enzyme pool on a log2 scale; strong cutting gives strongly negative numbers. There is no active / inactive call. Shares of all reads are compared; where an enzyme cuts many sequences, the uncut ones exceed 0.

Assays:
Assay in all cases: uncleaved DNA left, log2 of reads against the no-enzyme library (log2 ratio); higher = less cleavage (more negative = more Rep cleavage of the k-mer); sequences stand for … in CTCGTCCG…ACCGGAGA
[1] = tested on: T1, Rep nickase domain of Muscovy duck circovirus
T1 sequence (Rep 1-111, printed without the tag): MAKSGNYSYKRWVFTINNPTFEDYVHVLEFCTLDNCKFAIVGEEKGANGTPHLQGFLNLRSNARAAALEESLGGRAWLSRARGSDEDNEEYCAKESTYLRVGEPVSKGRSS
Experimental: (§1)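 A pool of 90-nt single-stranded DNAs with seven random bases just before the constant AC of the nick site (name = the seven bases) was cut by 3 µM recombinant His6-SUMO-tagged Rep nickase domain (300 nM DNA, 50 mM HEPES pH 8.0, 50 mM NaCl, 1 mM MnCl2, 1 h, 37 °C, three replicates). Uncut DNA was amplified and sequenced.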

[2] = tested on: T2, Rep nickase domain of banana bunchy top virus
T2 sequence (Rep 1-94, printed without the tag): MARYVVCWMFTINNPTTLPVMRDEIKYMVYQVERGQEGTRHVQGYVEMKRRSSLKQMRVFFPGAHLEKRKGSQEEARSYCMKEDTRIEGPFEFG
Experimental: as §1

[3] = tested on: T3, Rep nickase domain of cabbage leaf curl virus
T3 sequence (Rep 1-116, printed without the tag): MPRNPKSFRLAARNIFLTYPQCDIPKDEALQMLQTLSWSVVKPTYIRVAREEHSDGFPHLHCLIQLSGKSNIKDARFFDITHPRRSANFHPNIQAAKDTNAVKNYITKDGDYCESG
Experimental: as §1

[4] = tested on: T4, Rep nickase domain of chickpea chlorotic dwarf virus
T4 sequence (Rep 1-124, printed without the tag): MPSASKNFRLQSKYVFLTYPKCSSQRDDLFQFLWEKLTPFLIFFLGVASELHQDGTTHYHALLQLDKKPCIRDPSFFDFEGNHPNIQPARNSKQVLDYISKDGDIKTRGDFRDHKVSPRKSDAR
Experimental: as §1

[5] = tested on: T5, Rep nickase domain of faba bean necrotic yellows virus
T5 sequence (Rep 1-98, printed without the tag): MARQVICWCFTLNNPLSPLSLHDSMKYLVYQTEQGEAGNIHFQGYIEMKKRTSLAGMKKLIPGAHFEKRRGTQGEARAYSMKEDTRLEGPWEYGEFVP
Experimental: as §1

[6] = tested on: T6, Rep nickase domain of maize striate mosaic virus
T6 sequence (Rep 1-117, printed without the tag): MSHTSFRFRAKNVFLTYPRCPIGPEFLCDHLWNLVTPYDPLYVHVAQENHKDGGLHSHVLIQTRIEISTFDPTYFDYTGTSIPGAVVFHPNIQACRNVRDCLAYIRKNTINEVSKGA
Experimental: as §1

[7] = tested on: T7, Rep nickase domain of porcine circovirus 2
T7 sequence (Rep 2-116, printed without the tag): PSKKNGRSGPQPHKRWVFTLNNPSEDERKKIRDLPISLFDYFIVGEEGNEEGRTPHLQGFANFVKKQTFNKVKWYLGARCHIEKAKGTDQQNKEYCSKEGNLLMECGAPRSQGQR
Experimental: as §1

[8] = tested on: T8, Rep nickase domain of tomato golden mosaic virus
T8 sequence (Rep 1-124, printed without the tag): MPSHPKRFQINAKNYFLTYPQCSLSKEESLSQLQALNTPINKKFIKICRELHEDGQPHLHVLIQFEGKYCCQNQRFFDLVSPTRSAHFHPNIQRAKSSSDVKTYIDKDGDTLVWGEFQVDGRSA
Experimental: as §1

[9] = tested on: T9, Rep nickase domain of tomato yellow leaf curl virus
T9 sequence (Rep 1-136, printed without the tag): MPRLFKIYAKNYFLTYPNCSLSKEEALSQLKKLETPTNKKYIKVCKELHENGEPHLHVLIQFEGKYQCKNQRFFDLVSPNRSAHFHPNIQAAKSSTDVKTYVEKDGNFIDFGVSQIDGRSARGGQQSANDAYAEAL
Experimental: as §1

[10] = tested on: T10, Rep nickase domain of wheat dwarf virus
T10 sequence (Rep 1-137, printed without the tag): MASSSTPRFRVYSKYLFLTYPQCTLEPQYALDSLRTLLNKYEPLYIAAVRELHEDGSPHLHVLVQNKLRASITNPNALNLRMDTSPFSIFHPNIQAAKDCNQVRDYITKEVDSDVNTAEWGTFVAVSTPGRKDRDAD
Experimental: as §1

Row | Sequence | uncleaved DNA left (log2) [1] | uncleaved DNA left (log2) [2] | uncleaved DNA left (log2) [3] | uncleaved DNA left (log2) [4] | uncleaved DNA left (log2) [5] | uncleaved DNA left (log2) [6] | uncleaved DNA left (log2) [7] | uncleaved DNA left (log2) [8] | uncleaved DNA left (log2) [9] | uncleaved DNA left (log2) [10]
1 | ATCGGTT | 0.00202 | 0.0211 | 0.237 | 0.135 | 0.0203 | 0.969 | 0.118 | 0.015 | 0.0608 | 0.106
2 | AGGGACA | 0.168 | 0.248 | 1.02 | 2.16 | 0.115 | 2.33 | 0.283 | 0.178 | 0.199 | 0.23
3 | CGCCCCA | -0.144 | -0.0948 | 0.126 | -0.51 | -0.13 | -0.109 | -0.318 | -0.0979 | -0.0542 | -0.079
4 | CAAGCGT | -0.0836 | -0.0833 | -0.893 | -0.942 | -0.0979 | -1.01 | -0.0608 | -0.188 | 0.0152 | -0.164
5 | TGGATAT | 0.157 | 0.091 | 0.971 | 2.08 | 0.00687 | 2.3 | 0.331 | 0.0386 | 0.204 | 0.217
6 | ACGGGCA | -0.052 | 0.00787 | -0.144 | -0.253 | -0.147 | -0.428 | -0.264 | 0.0112 | -0.0494 | -0.146
7 | TCTTTCA | -0.117 | 0.0444 | 0.189 | -0.971 | 0.00152 | -0.261 | -0.188 | 0.0166 | 0.0171 | 0.121
8 | TGAAAGC | -0.0596 | -0.0817 | -0.225 | -0.307 | -0.0298 | -0.855 | -0.0285 | -0.0337 | -0.0741 | -0.0712
